From the CheMixHub ionic liquid set
± gives the uncertainty stated by the source. Further values from the same series stand in other lists.

Experiment: xn = mol fraction of the nth substance listed
Settings: for electrical conductivity: 101 kPa; for viscosity: 328.15 K, 100.3 kPa

CCCC[n+]1ccn(C)c1.CS(=O)(=O)[O-] + O
Settings	electrical conductivity [S/m]
298.15 K, x2 = 0.704	0.578 ± 0.029
302.15 K, x2 = 0.785	1.33 ± 0.067
303.15 K, x2 = 0.704	0.72 ± 0.036
305.15 K, x2 = 0.704	0.784 ± 0.039
307.15 K, x2 = 0.785	1.59 ± 0.079
309.15 K, x2 = 0.796	1.75 ± 0.088
312.15 K, x2 = 0.796	1.92 ± 0.096
319.15 K, x2 = 0.704	1.31 ± 0.065
321.15 K, x2 = 0.704	1.4 ± 0.07
321.15 K, x2 = 0.796	2.48 ± 0.12
322.15 K, x2 = 0.704	1.44 ± 0.072
322.15 K, x2 = 0.796	2.55 ± 0.13
325.15 K, x2 = 0.704	1.58 ± 0.079
325.15 K, x2 = 0.796	2.76 ± 0.14
327.15 K, x2 = 0.704	1.76 ± 0.088
330.15 K, x2 = 0.796	3.13 ± 0.16
331.15 K, x2 = 0.704	1.91 ± 0.095
337.15 K, x2 = 0.796	3.68 ± 0.18
338.15 K, x2 = 0.796	3.77 ± 0.19
342.15 K, x2 = 0.785	3.92 ± 0.2
344.15 K, x2 = 0.704	2.75 ± 0.14
345.15 K, x2 = 0.785	4.2 ± 0.21
345.15 K, x2 = 0.796	4.39 ± 0.22
346.15 K, x2 = 0.704	2.89 ± 0.14
346.15 K, x2 = 0.796	4.52 ± 0.23
347.15 K, x2 = 0.796	4.54 ± 0.23
349.15 K, x2 = 0.796	4.81 ± 0.24
353.15 K, x2 = 0.704	3.46 ± 0.17
353.15 K, x2 = 0.785	4.91 ± 0.25
353.15 K, x2 = 0.796	5.09 ± 0.26
355.15 K, x2 = 0.704	3.65 ± 0.18

CCCC[n+]1ccn(C)c1.C[C@H](N)C(=O)[O-] + O
Settings	viscosity [mPa·s]
x1 = 0.002927	0.58 ± 0.015
x1 = 0.004981	0.625 ± 0.015
x1 = 0.007048	0.672 ± 0.015
x1 = 0.009016	0.717 ± 0.015
x1 = 0.01103	0.764 ± 0.015
x1 = 0.01317	0.807 ± 0.015
x1 = 0.01511	0.851 ± 0.015
x1 = 0.01781	0.911 ± 0.015
